These results are taken from a collection of fitness landscapes (doi:10.1016/j.celrep.2020.107928).

First the molecules themselves.
B1: Caulobacter ParB omega fusion; a variant is named by its letters at X, in order, B8GW30 (parent)
chain: MESVVVGEPGMSEGRRGLGRGLSALLGEVDAAPAQAPGEQLGGSREAPIEILQRNPDQPRRTFREEDLEDLSNSIREKGVLQPILVRPSPDTAGEYQIVAGERAWRAAQRAGLKTVPIMVRELDDLAVLEIGIIENVQRADLNVLEEALSYKVLMEKFERTQENIAQTIGKSXSHVANXMRLLXLPDEVQSYLVSGELTAXHARAIAAAADPVALAKQIIEGGLSVRETEALARKAPNLSAGKSKGGRPPRVKDTDTQALESDLSSVLGLDVSIDHRGSTGTLTITYATLEQLDDLCNRLTRGI

Over roughly 81,000 sequences, “one-hybrid fitness for binding parS DNA” has its median near -0.17; the highest 2% begin near 0.51. Some of the results follow. A value given as a limit tells only on which side of the number the result lay.

Variants of B1 are the subject of the assay. Nature of the assay: one-hybrid fitness for binding parS DNA (scaled: cognate 1, non-cognate 0); higher = stronger binding. The note with it: with parS DNA site. The method, boiled down:
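Caulobacter ParB libraries with four specificity codons randomised were screened by bacterial one-hybrid selection in the E. coli USO strain, using a HIS3 reporter whose site lies 19 bp from the promoter. Selection ran for 48 hours at 37°C on M9 lacking histidine, with 0.1 mM IPTG and 5 mM 3-AT. Plasmids were Illumina-sequenced before and after selection, three replicate libraries were pooled, and variants with under 10 reads were dropped. Fitness is the log change in each variant's read ratio to wild type, rescaled against the cognate and non-cognate sites.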
For the variant SAGF, the “one-hybrid fitness for binding parS DNA” value was at most 0.2.
With SNGT, the “one-hybrid fitness for binding parS DNA” value is at most 0.2.
As to EIQR, the “one-hybrid fitness for binding parS DNA” value was at most 0.2.
Then CTLS, with at most 0.2; and LHTM, with at most 0.2; and PVSL, with at most 0.2.
Then QSLG, with at most 0.2; and LSDF, with at most 0.2.
The same measure for PQQK: at most 0.2; for RRWV: at most 0.2; for VTAG: at most 0.2.
For PVVK, the “one-hybrid fitness for binding parS DNA” value is at most 0.2.
Then QYAW, with at most 0.2.
The same measure for KMCR: at most 0.2.
Regarding GWQR, the “one-hybrid fitness for binding parS DNA” value is at most 0.2.
For the variant GQKR, the “one-hybrid fitness for binding parS DNA” value is at most 0.2.
In the case of GTIC, the “one-hybrid fitness for binding parS DNA” value was at most 0.2.
As for HPYT, the “one-hybrid fitness for binding parS DNA” value was at most 0.2.
In the case of WYTC, the “one-hybrid fitness for binding parS DNA” value is at most 0.2.
For the variant KGHS, the “one-hybrid fitness for binding parS DNA” value was at most 0.2.
Then PCFG, with at most 0.2; and TNDI, with at most 0.2; and FRNH, with at most 0.2.
Then PSEF, with at most 0.2.
With MHNW, the “one-hybrid fitness for binding parS DNA” value was at most 0.2.
Take TVWG: the “one-hybrid fitness for binding parS DNA” value is at most 0.2.
Then RPNF, with at most 0.2; and TFTL, with at most 0.2; and LFCS, with at most 0.2.
Take PSWF: the “one-hybrid fitness for binding parS DNA” value was at most 0.2.
Then SFCS, with at most 0.2; and NVNK, with at most 0.2.
The same measure for ANPG: at most 0.2; for HRMH: at most 0.2.
The same measure for VMSN: at most 0.2; for MAFE: at most 0.2; for QVDT: at most 0.2.
NISA: the “one-hybrid fitness for binding parS DNA” value was at most 0.2.
The same measure for KVSN: at most 0.2; for TPLL: at most 0.2.
The same measure for QAMG: at most 0.2.
The same measure for LWIR: at most 0.2.
For NMHT, the “one-hybrid fitness for binding parS DNA” value is at most 0.2.
The same measure for ILYW: at most 0.2; for KKNA: at most 0.2; for ANAV: at most 0.2.
Then KRWN, with at most 0.2; and CLHS, with at most 0.2; and NYIT, with at most 0.2.
Then WYWS, with at most 0.2; and YLHW, with at most 0.2; and PLNA, with at most 0.2.
For DDTV, the “one-hybrid fitness for binding parS DNA” value was at most 0.2.
Then RHYP, with at most 0.2; and FSKG, with at most 0.2.
Then HLRK, with at most 0.2; and LDSE, with at most 0.2; and GPRH, with at most 0.2.
In the case of MKNT, the “one-hybrid fitness for binding parS DNA” value is at most 0.2.
Then AIYI, with at most 0.2; and FTNS, with at most 0.2.
In the case of GPRF, the “one-hybrid fitness for binding parS DNA” value was at most 0.2.
Then IWQL, with at most 0.2.
Then IAKA, with at most 0.2.
Then VKEC, with at most 0.2; and LGRV, with at most 0.2.
Consider EKVG, for which the “one-hybrid fitness for binding parS DNA” value is at most 0.2.
ATTE: the “one-hybrid fitness for binding parS DNA” value is at most 0.2.
The same measure for PDCF: at most 0.2; for HSDW: at most 0.2; for LLVW: at most 0.2.
The same measure for PMLW: at most 0.2; for AWRC: at most 0.2; for VWAR: at most 0.2.
The same measure for TCRG: at most 0.2; for GMTM: at most 0.2; for CAVE: at most 0.2.
As to TPKY, the “one-hybrid fitness for binding parS DNA” value is at most 0.2.
Then NSTD, with at most 0.2.
Then PPLE, with at most 0.2.
Then DQVR, with at most 0.2; and LCNG, with at most 0.2.
As for HNAS, the “one-hybrid fitness for binding parS DNA” value is at most 0.2.
Then RKMW, with at most 0.2; and YVVL, with at most 0.2; and WDCG, with 0.41.
HSEY: the “one-hybrid fitness for binding parS DNA” value is at most 0.2.
Then FYQR, with at most 0.2.
Then FERG, with at most 0.2; and AWHG, with at most 0.2; and PWSQ, with 0.287.
Then KYMA, with at most 0.2; and PRHW, with at most 0.2; and VSYW, with at most 0.2.
For PGHL, the “one-hybrid fitness for binding parS DNA” value was at most 0.2.
For the variant FART, the “one-hybrid fitness for binding parS DNA” value is at most 0.2.
Take PHKV: the “one-hybrid fitness for binding parS DNA” value is at most 0.2.
Then RILN, with 0.422; and QSLP, with at most 0.2; and TNTV, with at most 0.2.
Then VHYS, with at most 0.2; and GPNS, with at most 0.2.
Then ISWV, with at most 0.2.
Take TDLP: the “one-hybrid fitness for binding parS DNA” value is at most 0.2.
The same measure for RCRY: 0.695; for VCWR: at most 0.2; for HRSH: at most 0.2.
Then LGGG, with at most 0.2.
Then KAWD, with at most 0.2; and QAVV, with at most 0.2; and SQHG, with at most 0.2.
ISAG: the “one-hybrid fitness for binding parS DNA” value is at most 0.2.
Take CPYR: the “one-hybrid fitness for binding parS DNA” value is at most 0.2.
In the case of MSTF, the “one-hybrid fitness for binding parS DNA” value is at most 0.2.
Turning to YHPC, the “one-hybrid fitness for binding parS DNA” value was at most 0.2.
As for DFGR, the “one-hybrid fitness for binding parS DNA” value is at most 0.2.
The same measure for TGMR: at most 0.2; for WVMG: at most 0.2; for TAQN: at most 0.2.
ICGS: the “one-hybrid fitness for binding parS DNA” value is at most 0.2.
The same measure for VDLF: at most 0.2; for AFAA: at most 0.2; for MHWC: at most 0.2.
Turning to ASFR, the “one-hybrid fitness for binding parS DNA” value is at most 0.2.
For QAKK, the “one-hybrid fitness for binding parS DNA” value was at most 0.2.
For the variant HVSG, the “one-hybrid fitness for binding parS DNA” value is at most 0.2.
For the variant THRW, the “one-hybrid fitness for binding parS DNA” value was at most 0.2.
The same measure for RCAP: at most 0.2.
As to IIAS, the “one-hybrid fitness for binding parS DNA” value was at most 0.2.
The same measure for RFCW: at most 0.2; for ILKY: at most 0.2; for EQNI: at most 0.2.
The same measure for MRMG: at most 0.2.
As for LHTF, the “one-hybrid fitness for binding parS DNA” value is at most 0.2.
RVAL: the “one-hybrid fitness for binding parS DNA” value is at most 0.2.
Then PVPD, with at most 0.2; and LWGR, with at most 0.2.
Then QASH, with at most 0.2; and TGDA, with at most 0.2.
The same measure for VEHT: at most 0.2.
For RGHI, the “one-hybrid fitness for binding parS DNA” value is at most 0.2.
Then NWQM, with at most 0.2; and REGW, with at most 0.2.
Take SNQE: the “one-hybrid fitness for binding parS DNA” value was at most 0.2.
Then QEAW, with at most 0.2; and AWRE, with at most 0.2.
Then CHAT, with at most 0.2.
The same measure for PHHD: at most 0.2.
Take CLHK: the “one-hybrid fitness for binding parS DNA” value was at most 0.2.
In the case of VMPP, the “one-hybrid fitness for binding parS DNA” value is at most 0.2.
On to ANKW, for which the “one-hybrid fitness for binding parS DNA” value is at most 0.2.
Then CLYG, with at most 0.2.
Then LTWA, with at most 0.2.
